The target in assay [1] is TET1-(Flag)3, endogenous TET1 of Tet1-(Flag)3 ESCs (mouse (endogenous in mouse ESCs)) (UniProt Q3URK3). As to the kind of experiment: co-IP; nuclear protein extracts (Benzonase-treated) of Tet1-(Flag)3 ESCs, about 200 million cells; anti-Flag magnetic beads, 2 h at room temperature, three washes with PBS; NANOG found by immunoblot; E14Tg2a ESCs as control. For orientation: In western blotting, separated proteins are transferred to a membrane and probed.

Sequences of proteins named here, by UniProt entry; tags and fusion partners are left off. A change or cut given only in a name is not applied to a line headed by its entry. Residues count along the entry.
UniProt Q3URK3: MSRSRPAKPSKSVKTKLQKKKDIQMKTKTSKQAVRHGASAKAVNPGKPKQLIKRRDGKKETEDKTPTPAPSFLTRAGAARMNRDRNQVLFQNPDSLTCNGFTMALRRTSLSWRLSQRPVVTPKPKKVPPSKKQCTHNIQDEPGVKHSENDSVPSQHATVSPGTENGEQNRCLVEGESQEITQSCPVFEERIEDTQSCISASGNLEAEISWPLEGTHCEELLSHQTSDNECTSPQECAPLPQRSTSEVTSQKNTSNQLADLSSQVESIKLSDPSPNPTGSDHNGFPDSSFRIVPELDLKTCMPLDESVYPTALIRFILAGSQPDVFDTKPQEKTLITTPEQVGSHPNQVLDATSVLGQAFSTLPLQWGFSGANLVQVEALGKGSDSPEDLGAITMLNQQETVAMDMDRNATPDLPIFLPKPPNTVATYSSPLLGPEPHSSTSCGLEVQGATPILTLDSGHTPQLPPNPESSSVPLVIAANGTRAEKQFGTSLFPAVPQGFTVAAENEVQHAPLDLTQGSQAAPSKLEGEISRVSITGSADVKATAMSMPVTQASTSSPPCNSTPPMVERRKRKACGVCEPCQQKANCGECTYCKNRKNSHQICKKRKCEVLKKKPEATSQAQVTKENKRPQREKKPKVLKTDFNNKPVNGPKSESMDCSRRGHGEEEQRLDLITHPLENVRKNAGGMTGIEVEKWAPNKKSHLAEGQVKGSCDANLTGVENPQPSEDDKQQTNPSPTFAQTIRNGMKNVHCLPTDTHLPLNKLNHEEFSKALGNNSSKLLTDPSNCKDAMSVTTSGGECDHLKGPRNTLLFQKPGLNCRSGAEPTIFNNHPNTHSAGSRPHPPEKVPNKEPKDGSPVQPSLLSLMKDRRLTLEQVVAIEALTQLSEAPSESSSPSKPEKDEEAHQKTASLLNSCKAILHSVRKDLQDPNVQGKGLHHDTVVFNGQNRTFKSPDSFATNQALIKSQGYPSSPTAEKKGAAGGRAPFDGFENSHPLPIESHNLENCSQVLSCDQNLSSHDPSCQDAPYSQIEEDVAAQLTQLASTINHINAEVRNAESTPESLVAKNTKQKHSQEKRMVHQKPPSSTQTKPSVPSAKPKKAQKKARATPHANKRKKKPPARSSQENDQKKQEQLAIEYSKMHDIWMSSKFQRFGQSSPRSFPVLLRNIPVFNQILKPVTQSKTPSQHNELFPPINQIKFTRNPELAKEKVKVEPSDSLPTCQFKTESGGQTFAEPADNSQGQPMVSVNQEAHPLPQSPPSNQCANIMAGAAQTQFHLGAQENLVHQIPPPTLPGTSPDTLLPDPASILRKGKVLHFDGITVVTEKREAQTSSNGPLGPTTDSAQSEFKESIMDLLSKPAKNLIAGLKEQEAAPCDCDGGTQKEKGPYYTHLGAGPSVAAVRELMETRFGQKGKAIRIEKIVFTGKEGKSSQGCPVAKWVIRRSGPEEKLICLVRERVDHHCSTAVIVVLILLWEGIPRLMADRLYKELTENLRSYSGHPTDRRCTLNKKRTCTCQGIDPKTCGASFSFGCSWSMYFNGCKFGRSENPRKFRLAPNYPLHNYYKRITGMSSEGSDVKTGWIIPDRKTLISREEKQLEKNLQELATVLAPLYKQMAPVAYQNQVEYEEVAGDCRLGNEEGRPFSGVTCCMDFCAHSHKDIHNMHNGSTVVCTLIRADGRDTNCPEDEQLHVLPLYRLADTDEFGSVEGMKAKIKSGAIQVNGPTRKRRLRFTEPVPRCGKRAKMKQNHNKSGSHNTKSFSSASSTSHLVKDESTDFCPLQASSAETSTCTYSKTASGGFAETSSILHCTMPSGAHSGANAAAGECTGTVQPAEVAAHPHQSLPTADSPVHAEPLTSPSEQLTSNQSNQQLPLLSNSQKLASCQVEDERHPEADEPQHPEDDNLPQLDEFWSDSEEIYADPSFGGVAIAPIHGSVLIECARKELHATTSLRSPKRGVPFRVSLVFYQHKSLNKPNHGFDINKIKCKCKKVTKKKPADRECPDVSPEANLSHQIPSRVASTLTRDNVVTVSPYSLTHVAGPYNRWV
MBP-TET1 1–321: residues 1-321 of Q3URK3
MBP-TET1 1–215: residues 1-215 of Q3URK3
MBP-TET1 1–165: residues 1-165 of Q3URK3
MBP-TET1 1–120: residues 1-120 of Q3URK3
(Flag)3-TET1 734–2039: residues 734-2039 of Q3URK3

For a further assay, the target named is MBP-TET1 1–120 (mouse) (UniProt Q3URK3). Description: pull-down; MBP-tagged constructs co-expressed with NANOG constructs in E. coli; bacterial extract (25 mM Tris–HCl pH 8.0, 200 mM NaCl) on amylose resin, one wash, elution with 10 mM maltose, immunoblot of the eluate.
Another assay deals with MBP-TET1 1–165 (mouse) (UniProt Q3URK3). The assay is described as above.
The target of a further assay is MBP-TET1 1–215 (mouse) (UniProt Q3URK3). Described as above.
The target in another assay is MBP-TET1 1–321 (mouse) (UniProt Q3URK3). The assay is described as above.
Assay [2] deals with (Flag)3-TET1 734–2039 (mouse) (UniProt Q3URK3). As to the kind of experiment: co-IP; (Flag)3-TET1 constructs and (HA)3-NANOG constructs expressed together in E14/T ESCs; Benzonase-treated nuclear protein extracts (350 mM KCl); TET1 immunoprecipitated by its Flag tag, immunoblot; for TET1(734–1169) also after phosphatase treatment of the extracts.

Results are given in words; binding and its absence hold for the method and conditions named. In cells and extracts the contact can be indirect. Some entries that bind do so weakly or less than the wild type. Where a sequence is shown, tags or fusion partners need not be part of it.

B1: NANOG, endogenous in Tet1-(Flag)3 ESCs (protein, UniProt Q80Z64 1-305)
chain: MSVGLPGPHSLPSSEEASNSGNASSMPAVFHPENYSCLQGSATEMLCTEAASPRPSSEDLPLQGSPDSSTSPKQKLSSPEADKGPEEEENKVLARKQKMRTVFSQAQLCALKDRFQKQKYLSLQQMQELSSILNLSYKQVKTWFQNQRMKCKRWQKNQWLKTSNGLIQKGSAPVEYPSIHCSYPQGYLVNASGSLSMWGSQTWTNPTWSSQTWTNPTWNNQTWTNPTWSSQAWTAQSWNGQPWNAAPLHNFGEDFLQPYVQLQQNFSASDLEVNLEATRESHAHFSTPQALELFLNYSVTPPGEI
For B1, the binding result in assay [1] is given as “binds”.

B2: (His)6-NANOG (protein, UniProt Q80Z64 1-305)
chain: MSVGLPGPHSLPSSEEASNSGNASSMPAVFHPENYSCLQGSATEMLCTEAASPRPSSEDLPLQGSPDSSTSPKQKLSSPEADKGPEEEENKVLARKQKMRTVFSQAQLCALKDRFQKQKYLSLQQMQELSSILNLSYKQVKTWFQNQRMKCKRWQKNQWLKTSNGLIQKGSAPVEYPSIHCSYPQGYLVNASGSLSMWGSQTWTNPTWSSQTWTNPTWNNQTWTNPTWSSQAWTAQSWNGQPWNAAPLHNFGEDFLQPYVQLQQNFSASDLEVNLEATRESHAHFSTPQALELFLNYSVTPPGEI
Turning to B2, the binding result with MBP-TET1 1–120 (mouse), with MBP-TET1 1–165 (mouse), in the assay with MBP-TET1 1–215 (mouse) and in the assay with MBP-TET1 1–321 (mouse) was “binds” in each case.

B3: (His)6-NANOG 194–305 (domain or fragment, UniProt Q80Z64 194-305)
chain: SLSMWGSQTWTNPTWSSQTWTNPTWNNQTWTNPTWSSQAWTAQSWNGQPWNAAPLHNFGEDFLQPYVQLQQNFSASDLEVNLEATRESHAHFSTPQALELFLNYSVTPPGEI
As to B3, the binding entry with MBP-TET1 1–321 (mouse) was “binds”.

B4: (HA)3-NANOG ΔWR (protein, UniProt Q80Z64)
chain: MSVGLPGPHSLPSSEEASNSGNASSMPAVFHPENYSCLQGSATEMLCTEAASPRPSSEDLPLQGSPDSSTSPKQKLSSPEADKGPEEEENKVLARKQKMRTVFSQAQLCALKDRFQKQKYLSLQQMQELSSILNLSYKQVKTWFQNQRMKCKRWQKNQWLKTSNGLIQKGSAPVEYPSIHCSYPQGYLVNASGSLSMWNAAPLHNFGEDFLQPYVQLQQNFSASDLEVNLEATRESHAHFSTPQALELFLNYSVTPPGEI
Turning to B4, in assay [2], the binding result is given as “binds”.

B5: (His)6-NANOG 1–160 (domain or fragment, UniProt Q80Z64 1-160)
chain: MSVGLPGPHSLPSSEEASNSGNASSMPAVFHPENYSCLQGSATEMLCTEAASPRPSSEDLPLQGSPDSSTSPKQKLSSPEADKGPEEEENKVLARKQKMRTVFSQAQLCALKDRFQKQKYLSLQQMQELSSILNLSYKQVKTWFQNQRMKCKRWQKNQWL
B5: the binding result with MBP-TET1 1–321 (mouse) is listed as “binds”.

B6: (His)6-NANOG 91–246 (domain or fragment, UniProt Q80Z64 91-246)
chain: KVLARKQKMRTVFSQAQLCALKDRFQKQKYLSLQQMQELSSILNLSYKQVKTWFQNQRMKCKRWQKNQWLKTSNGLIQKGSAPVEYPSIHCSYPQGYLVNASGSLSMWGSQTWTNPTWSSQTWTNPTWNNQTWTNPTWSSQAWTAQSWNGQPWNAA
With B6, the binding result with MBP-TET1 1–321 (mouse) is “binds”.

(Values after paper PMC7763487 (2020).)
